“And” between values parts separate entries of the source, which are not always exact repeats. Identical values can stand only once. The shares of active, inactive and inconclusive entries below differ from those in the screen. Potencies of inconclusive entries are doubtful fits and often do not repeat. The source made the active and inactive calls. Calls follow the shape of the dose curve; as a rule, active = well fitted curve in the direction sought with a large enough effect; inconclusive = small, poorly fitted or top-dose-only effect, or another doubt; inactive = no such curve, though single readings can be large; an effect the other way counts as inactive or inconclusive.
Columns and labels:
[1] = Viability qHTS for spleen associated tyrosine kinase inhibitor (SYKi) naive MV4-11 cells (AID 1963823); details: MV4-11 AML viability, CellTiter-Glo luminescence, 72 h; viability (% of control): at 45 µM (top of the series); also: nearly all actives have a fitted effect of over 40% in size
In short: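 Seeding of 500 SYKi-naive MV4-11 cells per well onto pre-dispensed compounds preceded a 72 hr incubation at 37 C. Luminescent CellTiter-Glo signal, read after 10 min at room temperature, reflected viable cells.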

[2] = Viability qHTS for spleen associated tyrosine kinase inhibitor (SYKi) drug resistant MV4-11 cells (AID 1963824); details: SYKi-resistant MV4-11 viability, CellTiter-Glo, 72 h; series mostly up to 45 µM; also: nearly all actives have a fitted effect of over 35% in size
In short: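 CellTiter-Glo luminescence, read 10 min after reagent addition, reports viability after a 72 hr compound exposure. Cells are an MV4-11 line made resistant to SYK inhibition, seeded at 500 per well onto compound-containing plates.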

[3] = Cellular viability qHTS for adrenocortical cancer (ACC) cell line SW-13 (AID 1963989); details: SW-13 ACC cells viability, CellTiter-Glo, 48 h; activity (max response): stronger effect = lower value; also: nearly all actives have a fitted effect of over 65% in size;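 as to activity (max response): cells grown in serum-free medium with ITS supplement; % is scaled to controls: 0 for no effect and ±100 for the full control effect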
In short: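 Luminescent ATP read-out (CellTiter-Glo, 20 min at room temperature) measured metabolically competent SW-13 cells after 48 h compound treatment. Final concentrations spanned up to 46 uM; bortezomib served as positive control.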

[4] = Cellular viability qHTS for adrenocortical cancer (ACC) cell line NCI-H295R (AID 1963990); details: CellTiter-Glo ATP luminescence, 48 h; activity change, negative = viability loss: at 46.1 µM (top of the series); also: nearly all actives have a fitted effect of over 60% in size
In short: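 IC50 and maximal efficacy derive from four-parameter logistic modelling of titration curves, with reads scaled between DMSO-only wells (0%) and doxorubicin hydrochloride (100% inhibition). Compounds spanned up to 46 uM over 48 h.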
Potency is read from the fitted curve at half-maximal effect; tags tell the direction and shape of the fitted curve.

Structure (SMILES) | Potency [1] | Potency [2] | Potency [3] | Potency [4] | activity (max response) [3]
CCc1ccc(N(CC(C)C)S(=O)(=O)c2ccc(OCC3CCOCC3)c(CO)c2)cc1 | inconclusive: 18.6 µM [cytotoxic, partial curve, poor fit] | active: 18.6 µM | inconclusive: 31.6 µM [cytotoxic, single point] | inconclusive: 35.5 µM [cytotoxic, single point] | –
COCCOC(=O)C1=C(C)NC(C)=C(C(=O)OC/C=C/c2ccccc2)C1c1cccc([N+](=O)[O-])c1 (centres undefined) | inconclusive: 33.5 µM [cytotoxic, single point] | inconclusive: 23.7 µM [cytotoxic, single point] | inconclusive: 23.1 µM [cytotoxic, single point] | inconclusive: 29.1 µM [cytotoxic, single point] | –
CO[C@H]1C[C@@H]2CC[C@@H](C)[C@@](O)(O2)C(=O)C(=O)N2CCCC[C@H]2C(=O)O[C@H]([C@H](C)C[C@@H]2CC[C@@H](OP(C)(C)=O)[C@H](OC)C2)CC(=O)[C@H](C)/C=C(\C)[C@@H](O)[C@@H](OC)C(=O)[C@H](C)C[C@H](C)/C=C/C=C/C=C/1C | inconclusive: 7.09 µM [cytotoxic, partial curve, poor fit] | active: 3.72 µM | inconclusive: 25.1 µM [cytotoxic, partial curve] | inconclusive: 0.0708 µM [cytotoxic, full curve] | –
COc1ccc(-n2nc(CCC(=O)N(C)O)cc2-c2ccc(Cl)cc2)cc1 | inconclusive: 33.5 µM [cytotoxic, single point] | inconclusive: 33.5 µM [cytotoxic, single point] | inconclusive: 7.31 µM [cytotoxic, partial curve] | active: 16.4 µM | –
O=C(O)Cc1cn(-c2ccccc2)nc1-c1ccc(Cl)cc1 | inconclusive: 18.8 µM [cytotoxic, single point] | inconclusive: 13.3 µM [cytotoxic, partial curve] | inconclusive: 29.1 µM [cytotoxic, single point] | inconclusive: 18.4 µM [cytotoxic, single point] | –
CC(=O)OC/C=C(C)/C=C/C=C(C)/C=C/C1=C(C)CCCC1(C)C | inconclusive: 18.8 µM [cytotoxic, single point] | inconclusive: 26.6 µM [cytotoxic, single point] | – | inconclusive: 13 µM [cytotoxic, partial curve] | inactive: 4.17%
CCc1cccc(N(C)C(N)=Nc2cccc3ccccc23)c1 | inconclusive: 16.8 µM [cytotoxic, partial curve] | inconclusive: 23.7 µM [cytotoxic, partial curve] | inconclusive: 29.1 µM [cytotoxic, single point] | active: 20.6 µM | –
CC(=O)OCC(=O)[C@H]1CC[C@H]2[C@@H]3CCC4=CC(=O)CC[C@]4(C)[C@H]3CC[C@]12C | inconclusive: 13.3 µM [cytotoxic, partial curve] | inconclusive: 8.41 µM [cytotoxic, partial curve] | – | inconclusive: 8.2 µM [cytotoxic, partial curve] | inactive: 2.66%
Cn1nccc1Nc1nccc(-c2ccn([C@H](CO)c3ccc(Cl)c(F)c3)c(=O)c2)n1 | inconclusive: 13.2 µM [cytotoxic, partial curve] | active: 4.61 µM and active: 6.61 µM | inconclusive: 35.5 µM [cytotoxic, single point] | inconclusive: 35.5 µM [cytotoxic, single point] | –
O=C(Nc1cccc(C2=NCCN2)c1)Nc1cccc(C2=NCCN2)c1 | inconclusive: 7.31 µM [cytotoxic, partial curve, poor fit] | inconclusive: 9.2 µM [cytotoxic, partial curve] | inconclusive: 7.96 µM [cytotoxic, single point] | inconclusive: 15.9 µM [cytotoxic, single point] | –
O=C1NC(=O)/C(=C/c2cccc(C(F)(F)F)c2)S1 | inactive and inconclusive: 13 µM [cytotoxic, partial curve] and inconclusive: 20.9 µM [cytotoxic, partial curve] | inactive and inconclusive: 16.4 µM [cytotoxic, partial curve] and inconclusive: 20.9 µM [cytotoxic, partial curve] | active: 25.1 µM | inconclusive: 35.5 µM [cytotoxic, single point] | –

Source: PubChem BioAssay (NCATS)
